Assay results from the supplement of paper PMC10338343.
± gives the standard deviation. Only a part is listed here, and it is no random draw.

The sequences below were run on MIWI (PIWIL1) piRISC loaded with L1MC piRNA (30 nt) (assay: pre-steady-state target cleavage rate (min^-1); MIWI and MILI are mouse PIWI proteins and EfPiwi is from a freshwater sponge; tags in brackets are library labels; higher = faster piRNA-guided slicing of the target). Settings: guide: L1MC piRNA 5'p-UAACUAAAUACUAUGCAAGCUGUAGGUCCU; auxiliary factor: none (no GTSF1).
Outline: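 The pre-steady-state cleavage rate was calculated from a burst-and-steady-state fit. Data came from Cleave-'n-Seq, in which […] transcribed, DNA-blocked target RNA library was mixed with 1 nM active affinity-purified piRISC carrying one synthetic guide, with or without 500 nM GTSF1 partner protein, in HEPES–potassium acetate buffer at 33 °C for 0–8 or 0–960 min. Uncleaved targets were sequenced and normalised to depth and to weakly complementary targets, three trials were pooled, and k3 was capped at 0.0001 min^-1.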
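Also: 1 nM active piRISC with 0.1 nM target library at 33 °C single turnover.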

Sequence	pre-steady-state target cleavage rate
UCCAGGUACAGCUUGCAUAGUAUUUAGUUA	0.0764 ± 0.011
UGGACCUACAGCUUGGAUAGUAUUUACUUA	0.0311 ± 0.0051
UCCUGGAUGAGCUUGGAUAGUAUUUAGAUA	0.00972 ± 0.0043
UCGACCUACAGCUUGCAUAGUAUUUAGUCUA	0.0179 ± 0.0043
AGGACGUACAGCUUGGAUAGUAUUUAGUUA	0.0579 ± 0.0083
UCCUGCUACAGCUUGCAUAGUAUUAACUUA	0.00607 ± 0.0022
AGGACCUACUGCUUGCAUAGUAUUUAGAUA	0.0411 ± 0.0086
UCCUGGAUGAGGUUGCUUAGUAUUUAGUUA	0.00323 ± 0.003
UCCUGGAUGUGCUUGCAUAUUAUUUAGUUA	0.029 ± 0.0086
UCCUGCUACAGCUUGCAUAGUAUUUUGUAA	0.009 ± 0.0031
UCGAGCUACAGCUUGCAUAGUAUUUAGUUA	0.0832 ± 0.014
AGGACCUACAGCUUGCAUAGUUAAUAGUUA	0.0111 ± 0.004
UCCUGGAUCAGCUUGCAUAGUAAUUAGUAA	0.0094 ± 0.0034
UCCUCGUAGAGCUUGCAUAGUAUUUAGUUA	0.0374 ± 0.0076
UGGACCUACAGCUUGCAUAGUAUUUAUGUUA	0.0265 ± 0.0042
AGGACCUACAGCUUUCAUAGUAUUUAGUUA	0.0459 ± 0.0095
UCCUGCUUCAGCUUGCAUAGUAUUAAGUUA	0.0139 ± 0.0034
UGGACCUAGUCCUUGCAUAGUAUUUAGUAA	0.0056 ± 0.002
UCGACCUACAGCUUACAUAGUAUUUAGUUA	0.0382 ± 0.0069
UCCACCUACAGCUUGCAUAGUAUUUAGUCA	0.0355 ± 0.01

Sequence	pre-steady-state target cleavage rate
UCCUGGUACAGCUUGCAUACUAUUUAGUAA	0.00856 ± 0.0034
UCGACUCUACAGCUUGCAUAGUAUUUAGUUA	0.0579 ± 0.0096
UCCUGGAUCAGCUUGCUUAGUAUUUAGAAA	0.00482 ± 0.0028
AGGACCUACAGCUUGGAUAGUUUUUAGUUA	0.0281 ± 0.0067
UCCUGCUACAGCUAGCAUAGUAUUUAGUAA	0.00466 ± 0.0021
UGGACCUACAGCAUGCUUAGUAUUUAGUUA	0.0147 ± 0.0037
UCCUGGAUGUCCUUGCAUAGUAUUCAGUUA	0.00481 ± 0.0019
UCGACCUACAGCUUGCAUAGUAUUAUCUUA	0.00466 ± 0.0026
UCGACCUACUGCUUGCAUACUAUUUAGUUA	0.0294 ± 0.0065
UCCUGGAUGUGCUUGCAAACUAUUUAGUUA	0.00254 ± 0.0022
UCCUGGAUGUCCUUGCAUAGUAUGUUAGUUA	0.00476 ± 0.0026
UCGACCAACAGCUAGCAUAGUAUUUAGUUA	0.0286 ± 0.0073
UCCUGCUACAGCUUGCAUAGUAUAUAGUAA	0.00409 ± 0.0023
UCCUGGAACAGCUUGCAAAGUAUUUAGUUA	0.044 ± 0.011
UGGACCUACAGCAUGCAUAGUAUUUAGAUA	0.0142 ± 0.0031
UCCACCUACUCCUUGCAUAGUAUUUAGUAA	0.0152 ± 0.0026
UCCUGGUACAGCGUUGCAUAGUAUUUAGUUA	0.0209 ± 0.0044
UCCACCUACAGCAUGCAUAGUUUUUAGUUA	0.0116 ± 0.0021
UCGACCUACAGGUUGCAUAGAAUUUAGUUA	0.0138 ± 0.0036
AGGACCUACAGCUAGCAUAGUAUUAAGUUA	0.0102 ± 0.0032
